Reference: article PMC12136788
This is one part of the list.

T1: UNK ZnF1-3 (human, UniProt Q9C0B0 31-174)
T1 sequence: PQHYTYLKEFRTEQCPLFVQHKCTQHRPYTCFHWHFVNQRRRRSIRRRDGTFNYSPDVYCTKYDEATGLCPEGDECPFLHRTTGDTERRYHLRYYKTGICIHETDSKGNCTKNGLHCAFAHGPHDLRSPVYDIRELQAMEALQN

B1: chrX:147030916:147030917:+_ENSG00000102081_ENST00000218200|hu_mus|FALSE|FALSE (ssRNA)
RNA: GGGAGUUCUACAGUCCGACGAUCAAUAUUCCUACCUGCCAAGAUAUAAAAAAGGCACAGAUCAUACAACUCUUUUUUUUGCUAAUGAAAAUAACAAAUGUCACAUCACACACAUUUCAGGGUCCACUAAAAUACUGGAAAAGUCAACAGAGGAUUGAGCAUCA
B2: chr4:115894766:115894767:+_ENSMUSG00000028698_ENSMUST00000030464|mus_hu|mus_mus_mus_hu_True|8_38 (ssRNA)
RNA: GGGAGUUCUACAGUCCGACGAUCUUCCACACGGAAAUGUACUUCGGGUUUUCCAACGGCCAGUACCAGUCCGGCCAAACUACCCGAACAGGGUCCUGUCCUCCUCUCCUACAGAACACAACAAAAUAACAAAAUACUUUCAAGCAACAGAGGAUUGAGCAUCA
B3: 11579980_11580100_4645_3pUTR_ENSG00000205269_ENST00000379426|human|control|control (ssRNA)
RNA: GGGAGUUCUACAGUCCGACGAUCUAGAAGACUGAAGGGUUAUAUAUCGCUCUUACUUUUCAAGAAGAAUAAUUAGCAAAUAGCAGAAAGUCAAUAAAUCAACAUGGCUGAAUGAAUCCAAGGGAAGUAAGUGGGAAUAGAUAACAACAGAGGAUUGAGCAUCA
B4: 153932629_153932749_3192_ncRNA_ENSMUSG00000028360_ENSMUST00000144677|mouse|control|control (ssRNA)
RNA: GGGAGUUCUACAGUCCGACGAUCGGUCAGUUCUGGCGACAGUUCAAGCAUUUCCAUAGAAUGACUUAAGAAAUAACAUUUACUCCCCAUCCAAAUUCACUUUCUAAAUUACAGCAUCUAUUUCCAAAUUGCCUUUGUUUGGCCCAACAGAGGAUUGAGCAUCA
B5: chr3:196089228:196089229:-_ENSG00000163960_ENST00000296328|hu_mus|FALSE|FALSE (ssRNA)
RNA: GGGAGUUCUACAGUCCGACGAUCUUCCCUUUUUCCAUCUGGGUACCGCAGCAUCAGCUGUGCUUUUGGUCCAUUUACAUCUAUCCCCUCCACUAUUCCAUCUGACUUUUCAGGUGACAUCUCCAAGACCUCAGAAUCCAUGGACAACAGAGGAUUGAGCAUCA
B6: chr4:94236435:94236436:-_ENSMUSG00000028577_ENSMUST00000107107|mus_mus|FALSE|FALSE (ssRNA)
RNA: GGGAGUUCUACAGUCCGACGAUCCUGGGACAUCAUGAGCUUUUGUCCUGCCUGACUAACAAAGCAAUUGCAAAAAGUCCUAAGAGCAAGCAGCUGGUUUGCUGGCUUUCCUUUGGGGUUCAGAAGGUUGAUAAGAUGGCUGCUCAACAGAGGAUUGAGCAUCA
B7: chr1:219384972:219384973:+_ENSG00000143353_ENST00000366928|hu_hu|FALSE|FALSE (ssRNA)
RNA: GGGAGUUCUACAGUCCGACGAUCCCAUAACUUCAAUAUGUCUAACUCAGUUUUGCUUAGCUCAUGGUAAACAUUUGGAAAACUAUGAAACUUCGUGGUCACUCCUAGAGAUUUUAACAUUGAGUUUGUCUCUUCUGCCCAAGACAACAGAGGAUUGAGCAUCA
B8: chr8:67197462:67197463:-_ENSMUSG00000031604_ENSMUST00000034015|mus_hu|motif|central (ssRNA)
RNA: GGGAGUUCUACAGUCCGACGAUCCUGAAAUGACCAGUAUAUAUCUAAAAGAUUUAAAGACCCAAUGUGAACUUCAGGCCGGUGGUUUUACUGGGAGAAAAGCCAUAGAUUAAUACUUCUAGUAUCCAAAACCUUCUUGGAAGCCAACAGAGGAUUGAGCAUCA
B9: 61442511_61442631_1450_CDS_ENSG00000126814_ENST00000261249|human|control|control (ssRNA)
RNA: GGGAGUUCUACAGUCCGACGAUCUGACAGACCCAGCAGCUGCAUUAACUCUUCUUUGACUGGUCCUUGGAGGAAGUCUUUCCCAUCCAAGUUGAAGACUUUCACCUUUUGGUCCACUUUAUUUAAUUUACAGUUGUACAACAGCAACAGAGGAUUGAGCAUCA
B10: 68173346_68299047_163_5pUTR_ENSG00000172380_ENST00000370982|human|control|control (ssRNA)
RNA: GGGAGUUCUACAGUCCGACGAUCGUGCUUGCUGUUUUGCUGGACAUCUUCAAUUAUUGUUUUUACCUGAAAUCAGUAAGACUUUGUGUGGUCCAAUGUUUUCAGGUUUUAAGUGGAAUGAAUCCGCCUGCCGGUGCGCUGCCCCAACAGAGGAUUGAGCAUCA
B11: chr7:141438946:141438947:+_ENSG00000106028_ENST00000265304|hu_mus|hu_hu_hu_mus_True|78_78 (ssRNA)
RNA: GGGAGUUCUACAGUCCGACGAUCGACGAAAUACCUGUAACACAGGUCUUCGAAACAUUCUAUUUUCUUUUCUUACAACCUAAUCUUUAGGCUUUUCCUAAAGGAAAGAAAGAAAAGAGAAAAAUGAUAAAUCAAGAAACUACACAACAGAGGAUUGAGCAUCA
B12: chr12:16048344:16048345:+_ENSG00000023734_ENST00000419869|hu_mus|motif|central (ssRNA)
RNA: GGGAGUUCUACAGUCCGACGAUCAGAUCGUCCAUAAGUAAUAACCAAAAUCUCUCCUUCAGGAAUAUACUCCAUGCUGCGGACAGACAUAUUAAAAUUCAGAGAUUUCACUUCUGUCAUUGUGGCAUGAUCCCAGAGCCGAACCAACAGAGGAUUGAGCAUCA
B13: chr1:58468927:58468928:-_ENSMUSG00000026034_ENSMUST00000148330|mus_mus|mus_mus_mus_hu_False|1_78 (ssRNA)
RNA: GGGAGUUCUACAGUCCGACGAUCAAUUACUGAAAAAGAUGUUCAUUACCUUAGCUAGGCCAUGUAUGAACCAAAUUACCCAAACAAAAUAAACAUGGCAAUAUAAAAAUGUUAAGAAUUUACAAAGCUGUACAAAAAGACUGACAACAGAGGAUUGAGCAUCA
B14: 12845315_12845435_96_CDS_ENSG00000123144_ENST00000591254|human|control|control (ssRNA)
RNA: GGGAGUUCUACAGUCCGACGAUCCACCGGGCUCGAACCCGCGCCCGACACCUCCUCGUCCCCGCUCUCGGGCGACGUCCCCGAUCCCGACUCAGCCCAACGGCUCCCGCCACCGCCACCGCCCGCGGGGCCCGGAGCCUCCCGCAACAGAGGAUUGAGCAUCA
B15: chr2:198351390:198351391:-_ENSG00000144381_ENST00000345042|hu_hu|hu_hu_hu_mus_False|1_38 (ssRNA)
RNA: GGGAGUUCUACAGUCCGACGAUCUCAUUCCCACCCUCCACAGAAAGGCUGCUUCUGAACUCUCAUGUGGUGACACAGCGCUACAGUCCUGAUGCUCACAGAAUAGUAGAGAUGCCUCAGUGAUUUAAGUUGAAAGCAGCAGUACAACAGAGGAUUGAGCAUCA
B16: chr6:38652254:38652255:-_ENSG00000124767_ENST00000373365|hu_hu|hu_hu_hu_mus_False|28_28 (ssRNA)
RNA: GGGAGUUCUACAGUCCGACGAUCCGAGAACUUCAUAGCAGGGAAGUCAAGCUUCUGCAGGAGGGUCAGUCCAAGAACCCUCGUAUAAAAAUCCAGGGACUUCUUAGGAUCCUUCACUCUUAGCAUCGUUUGCUGCAGUAGAAACAACAGAGGAUUGAGCAUCA
B17: chr5:143539998:143539999:-_ENSG00000145817_ENST00000274496|hu_hu|motif|central (ssRNA)
RNA: GGGAGUUCUACAGUCCGACGAUCUUUUCAAAAGACGGAAAUCAGGGCAAAGACUCCAUAUAACAAAGCGCAAGGAUAUGCGGCGGAAAGUUGCUGUCCUUCCAUGGCUAAUGCAGAAAUAAAUAUUUUGGAAGCAGAAAAACUCAACAGAGGAUUGAGCAUCA
B18: 127655467_127657569_92_3pUTR_ENSMUSG00000027379_ENSMUST00000028858|mouse|control|control (ssRNA)
RNA: GGGAGUUCUACAGUCCGACGAUCAACAUGCGAAAGACAUUUUCUAGGUUGUCCAUGACGAGAAAAAACGCGCAGCGGCGAAAUACCCCACCAGCCGCCGACCAAACUCCCCAUCAGCCCCUAACCCCGAGUCUCGAAGGCCGCCAACAGAGGAUUGAGCAUCA
B19: chr11:77336104:77336105:-_ENSG00000074201_ENST00000525064|hu_mus|hu_hu_hu_mus_False|58_98 (ssRNA)
RNA: GGGAGUUCUACAGUCCGACGAUCCUCACACAUUGCUGUGAACAUUGCCUCCAAUGCUGACUUAUCACUGGGCACAAAUCUAAAUUCAGAAAUGGGUUCAACAUCAUCAUUGUCUUCCUCAUCUUCAUCAGAGAGAGGUUCUUUCAACAGAGGAUUGAGCAUCA
B20: chr1:39494564:39494565:+_ENSG00000168653_ENST00000372967|hu_hu|hu_hu_hu_mus_True|78_88 (ssRNA)
RNA: GGGAGUUCUACAGUCCGACGAUCAUGCAUUCGCCUCAUCGUUUUGUGCCGAAGCAAACACUCUACGAAGUCAUCGAACUCUAUCUUGCACUCCUUUUUCGCCCGGGUCCCACCGAUCCCGUGUGCACACUCUAUCCACUCUUUCAACAGAGGAUUGAGCAUCA
B21: chr12:1897663:1897664:+_ENSG00000006831_ENST00000357103|hu_hu|FALSE|FALSE (ssRNA)
RNA: GGGAGUUCUACAGUCCGACGAUCUUGUGGCUUUAGCAUAAUUUAUAAAGGGGAAGAGGGAAAAUACUGAAAAAGGCCACUAUUUAAUGGUGAAAGAAUGAAGCUGUAGAGGUCCCAACCAGCCUAGGGCCAAAAAAGAAAAUUCAACAGAGGAUUGAGCAUCA
B22: chr5:43656058:43656059:+_ENSG00000112992_ENST00000512996|hu_hu|FALSE|FALSE (ssRNA)
RNA: GGGAGUUCUACAGUCCGACGAUCGUAGGCCACAAUCUUGGUGAGAUUUGCUGCUGCAUCCGUAGCAAAAUGUGGAUAUUCUAUAAUGUACUCAGCUAUGCAAGUAAGUACAGCUGCCAAACCCACUAAACUGUGAAAAGCAGCCAACAGAGGAUUGAGCAUCA

Each binder was assayed against T1, UNK ZnF1-3 (assay: nsRBNS (natural sequence RNA bind-n-seq); RBNS binding buffer (assumed for nsRBNS): 25 mM Tris pH 7.5, 150 mM KCl, 3 mM MgCl2, 0.01% Triton X-100, 500 ug/ml BSA, 20 U/ml SUPERase-In, 4 C; UNK is unkempt and MSI1 is Musashi-1; names of the RNAs are library labels; protein concentration not given here; high values mean tight binding).

| Binder | binding signal [enrichment R] |
| --- | --- |
| B1 | 1.68 |
| B2 | 0.879 |
| B3 | 0.98 |
| B4 | 1.34 |
| B5 | 0.778 |
| B6 | 1.52 |
| B7 | 0.84 |
| B8 | 1.47 |
| B9 | 0.672 |
| B10 | 0.441 |
| B11 | 0.261 |
| B12 | 0.903 |
| B13 | 1.42 |
| B14 | 3.2 |
| B15 | 1.3 |
| B16 | 0.66 |
| B17 | 1.69 |
| B18 | 1.4 |
| B19 | 1.06 |
| B20 | 0.657 |
| B21 | 2.47 |
| B22 | 0.886 |
